Source: the BET-seq Pho4 binding data (Le et al. 2018)
Some of the results follow. These are noisy estimates, calculated here from bound and input reads.

target: T1, Pho4 (S. cerevisiae) (UniProt P07270); assay: relative binding free energy (BET-seq); higher = weaker binding; settings: reference: library average
T1 sequence: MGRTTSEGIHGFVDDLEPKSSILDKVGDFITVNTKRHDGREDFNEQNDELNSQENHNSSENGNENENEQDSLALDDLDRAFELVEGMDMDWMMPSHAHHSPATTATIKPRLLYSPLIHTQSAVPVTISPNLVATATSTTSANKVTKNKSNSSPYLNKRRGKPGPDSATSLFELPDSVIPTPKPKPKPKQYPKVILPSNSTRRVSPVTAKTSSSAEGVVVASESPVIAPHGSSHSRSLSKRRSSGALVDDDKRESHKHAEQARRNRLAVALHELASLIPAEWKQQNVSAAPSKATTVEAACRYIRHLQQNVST

| Sequence | relative binding free energy [kcal/mol] |
| --- | --- |
| TTTGTCACGTGAAAGA | 0.36 |
| TTGTGCACGTGGAATG | 0.14 |
| AGCTTCACGTGATTGG | 0.24 |
| TATTACACGTGCGGGA | 0.03 |
| GGGGACACGTGGTAAT | 0.07 |
| ATAAGCACGTGGTCTT | -0.18 |
| GGGTTCACGTGTAGTG | 0.34 |
| GGATGCACGTGTATGT | 0.08 |
| AGGAGCACGTGAATGG | 0.08 |
| TGGTGCACGTGTGCTA | -0.04 |
| CGTGGCACGTGCTTAG | -0.11 |
| TTATACACGTGGGGGC | -0.04 |
| TTAAGCACGTGATTAA | 0.04 |
| GATTTCACGTGAAGAG | 0.5 |
| TTGAGCACGTGACTGG | 0.08 |
| GGGAACACGTGATGGT | 0.29 |
| TCTTGCACGTGGTTGC | -0.1 |
| CGGGTCACGTGGGTTT | 0.11 |
| TACTGCACGTGAATGG | 0.19 |
| TTTATCACGTGATGAG | 0.23 |
| CAGGTCACGTGATTTA | 0.24 |
| GATAACACGTGAGTGG | 0.27 |
| AGTTCCACGTGTGCTT | 0.23 |

| Sequence | relative binding free energy [kcal/mol] |
| --- | --- |
| AAGGTCACGTGTTGTT | 0.06 |
| TATTCCACGTGTGGTT | 0.09 |
| ATTATCACGTGGTTTT | 0.22 |
| AGGTGCACGTGGCGCG | -0.21 |
| GGTATCACGTGCTTTT | 0.06 |
| GGCGTCACGTGTTCTT | 0.24 |
| TAATACACGTGTTTGC | 0.03 |
| TGTGCCACGTGAGGGC | 0.14 |
| TTAGTCACGTGAACGG | 0.26 |
| ACTATCACGTGGGTAT | 0.01 |
| GCAGTCACGTGGAGGG | 0.05 |
| GGAGGCACGTGTGTAT | 0 |
| ATGGTCACGTGCAAGT | 0.12 |
| GAATGCACGTGTGGCG | -0.1 |
| TCCGGCACGTGGATGG | -0.1 |
| TTGTACACGTGGCGGG | 0.07 |
| GGGCACACGTGGGGCT | -0.03 |
| ATACTCACGTGTATGT | -0.02 |
| CGATACACGTGGTGGT | 0.09 |
| GGTCTCACGTGATGAG | 0.42 |
| GACTACACGTGTGGGT | 0.34 |
| TAAGCCACGTGTATTT | 0.15 |
| CTAGTCACGTGGGATT | -0.1 |

| Sequence | relative binding free energy [kcal/mol] |
| --- | --- |
| GGAGCCACGTGTGGTA | -0.06 |
| TTGTGCACGTGCTGCA | -0.06 |
| AATGTCACGTGTATTA | 0.08 |
| GGGTCCACGTGGTGGA | -0.01 |
| ATTCTCACGTGTGTGT | 0.17 |
| TTTGGCACGTGTTACA | -0.11 |
| GTTGGCACGTGAATGA | 0.27 |
| TAGGGCACGTGTTTTA | -0.09 |
| TAAGTCACGTGTGGAC | 0.14 |
| GGCGTCACGTGATGTT | 0.39 |
| GTGTTCACGTGCTTGG | 0.17 |
| TTGGACACGTGTTCTT | 0.08 |
| ATTTTCACGTGGCCTT | 0.28 |
| ATGTACACGTGGGGGG | -0.07 |
| TATAGCACGTGCTTGT | -0.3 |
| TTCAACACGTGGGTTG | -0.13 |
| TTTGGCACGTGGGGAG | -0.27 |
| GGGCTCACGTGCGGAT | 0.19 |
| AGCAACACGTGTAGGG | 0.04 |
| TGTGACACGTGAGAGG | 0.13 |
| GGGGGCACGTGAGTAT | 0.27 |
| CGTCTCACGTGTGGTA | 0.37 |
| TTATACACGTGGGGAC | -0.13 |

| Sequence | relative binding free energy [kcal/mol] |
| --- | --- |
| CTTCGCACGTGGGATT | 0.03 |
| ATTGTCACGTGGTGAC | -0.05 |
| ATATACACGTGAAGTT | 0.19 |
| GTTTGCACGTGTTGGA | 0.1 |
| AGGCGCACGTGGTGAG | -0.22 |
| CGGGTCACGTGACGGA | 0.33 |
| ATTGACACGTGAGGCG | 0.18 |
| GGTGTCACGTGATGAT | 0.27 |
| ATAGTCACGTGGTTAG | -0.16 |
| GGTGGCACGTGTAATC | 0.31 |
| CGGAACACGTGTTTGG | -0.06 |
| TATATCACGTGCCGTT | 0.18 |
| GGAGACACGTGAGGTG | 0.3 |
| CGGTTCACGTGGTATG | 0.18 |
| CTGTGCACGTGAGTTT | 0.27 |
| TAGGGCACGTGATGAT | 0.01 |
| GCTGTCACGTGGTGTA | 0.02 |
| TGAAGCACGTGGTAGG | -0.07 |
| GATTTCACGTGGGGAT | 0.24 |
| CGAATCACGTGTGGTG | 0.09 |
| GTAGTCACGTGTTAGC | 0.11 |
| TTAGACACGTGGGGTC | -0.16 |
| TTATGCACGTGAAGTA | 0.13 |

| Sequence | relative binding free energy [kcal/mol] |
| --- | --- |
| GAAATCACGTGAGGGC | 0.59 |
| GAGTACACGTGAAGTT | 0.43 |
| ATTGTCACGTGATTTC | 0.19 |
| TTCTGCACGTGGATAG | 0.12 |
| TTTGGCACGTGATTCT | 0.14 |
| TATTACACGTGGTAGC | 0.07 |
| AATGGCACGTGATGAT | 0.02 |
| CGTGTCACGTGAGTTA | 0.29 |
| AGGTTCACGTGGATAG | 0.3 |
| GTGTCCACGTGCGATG | 0.2 |
| CAGGTCACGTGGCATG | 0.02 |
| TTAAGCACGTGTTAGA | 0.02 |
| TGTAACACGTGCGGAT | -0.03 |
| TTGGGCACGTGGGGCG | -0.19 |
| TGTTTCACGTGAAATA | 0.28 |
| GATTCCACGTGGGGGA | 0.01 |
| TGGAACACGTGTGTCA | 0.05 |
| ACTGTCACGTGGGTAA | -0.08 |
| AGCGTCACGTGAAGGA | 0.41 |
| TGGATCACGTGTTAGA | 0.24 |
| GGGTCCACGTGTGGAA | 0.1 |
| GGTTACACGTGGGGGC | 0.16 |
| CTGATCACGTGGGTGT | -0.06 |
